Assay results as given in a collection of fitness landscapes (doi:10.1016/j.celrep.2020.107928).
Over roughly 81,000 sequences, “one-hybrid fitness for binding parS DNA” has its median near -0.17; the highest 2% begin near 0.51. This is one part of the list.

B1: Caulobacter ParB omega fusion; a variant is named by its letters at X, in order, B8GW30 (parent)
chain: MESVVVGEPGMSEGRRGLGRGLSALLGEVDAAPAQAPGEQLGGSREAPIEILQRNPDQPRRTFREEDLEDLSNSIREKGVLQPILVRPSPDTAGEYQIVAGERAWRAAQRAGLKTVPIMVRELDDLAVLEIGIIENVQRADLNVLEEALSYKVLMEKFERTQENIAQTIGKSXSHVANXMRLLXLPDEVQSYLVSGELTAXHARAIAAAADPVALAKQIIEGGLSVRETEALARKAPNLSAGKSKGGRPPRVKDTDTQALESDLSSVLGLDVSIDHRGSTGTLTITYATLEQLDDLCNRLTRGI

Variants of: B1
Assay: one-hybrid fitness for binding parS DNA (scaled: cognate 1, non-cognate 0); higher = stronger binding
Details: with parS DNA site
Summary of the method: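 Caulobacter ParB libraries with four specificity codons randomised were screened by bacterial one-hybrid selection in the E. coli USO strain, using a HIS3 reporter whose site lies 19 bp from the promoter. Selection ran for 48 hours at 37°C on M9 lacking histidine, with 0.1 mM IPTG and 5 mM 3-AT. Plasmids were Illumina-sequenced before and after selection, three replicate libraries were pooled, and variants with under 10 reads were dropped. Fitness is the log change in each variant's read ratio to wild type, rescaled against the cognate and non-cognate sites.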

Variant	one-hybrid fitness for binding parS DNA
DTRC	≤ 0.2
PTFN	≤ 0.2
QIST	≤ 0.2
AKCH	≤ 0.2
VVRF	≤ 0.2
RLEK	≤ 0.2
QTYE	≤ 0.2
RAEY	0.402
MVAT	≤ 0.2
KSQF	≤ 0.2
MSLS	≤ 0.2
CFNR	≤ 0.2
WMSS	≤ 0.2
EPEL	≤ 0.2
CVGT	≤ 0.2
QYQA	≤ 0.2
VQNS	≤ 0.2
SDHA	≤ 0.2
LLMV	≤ 0.2
YQNS	≤ 0.2
AHRS	≤ 0.2
TARV	≤ 0.2
RRYG	0.769
NKHS	≤ 0.2
HVQC	≤ 0.2
TCVL	≤ 0.2

Variant	one-hybrid fitness for binding parS DNA
STCL	≤ 0.2
YNLA	≤ 0.2
VITT	≤ 0.2
RLYQ	≤ 0.2
TKAW	≤ 0.2
TKSN	≤ 0.2
RGVH	≤ 0.2
WHRS	≤ 0.2
LETF	≤ 0.2
GMGG	≤ 0.2
IDLG	≤ 0.2
LNEC	0.237
RAQI	≤ 0.2
PFIT	≤ 0.2
RYDT	0.79
QGLC	≤ 0.2
LPRM	≤ 0.2
DWDR	≤ 0.2
DLIM	≤ 0.2
GLKY	≤ 0.2
NTKG	≤ 0.2
NALI	≤ 0.2
NKAT	≤ 0.2
KNTM	≤ 0.2
GLEG	≤ 0.2
GFPN	≤ 0.2

Variant	one-hybrid fitness for binding parS DNA
PLLH	≤ 0.2
RTYR	≤ 0.2
AHML	≤ 0.2
ILTI	≤ 0.2
YHPA	≤ 0.2
ILRT	≤ 0.2
NMDL	≤ 0.2
ANMT	≤ 0.2
RVLN	0.423
ARWS	≤ 0.2
SMEP	≤ 0.2
PYTS	≤ 0.2
TERA	≤ 0.2
QQSN	≤ 0.2
EMVL	≤ 0.2
LHTQ	≤ 0.2
MITT	≤ 0.2
LYTC	≤ 0.2
CTNG	≤ 0.2
HWEI	≤ 0.2
TSSC	≤ 0.2
IGHC	≤ 0.2
TNMV	≤ 0.2
GVYR	≤ 0.2
VSPT	≤ 0.2
HDDG	≤ 0.2

Variant	one-hybrid fitness for binding parS DNA
SIWA	≤ 0.2
TESL	≤ 0.2
QASC	≤ 0.2
KCSL	≤ 0.2
SRTH	≤ 0.2
GCKP	≤ 0.2
YVPR	≤ 0.2
SNPM	≤ 0.2
LRTA	≤ 0.2
SAFT	≤ 0.2
PLQS	≤ 0.2
SWGR	≤ 0.2
MRGG	≤ 0.2
EFAT	≤ 0.2
PGME	≤ 0.2
ISRH	≤ 0.2
PMTS	≤ 0.2
CMTT	≤ 0.2
HSQL	≤ 0.2
HRSN	≤ 0.2
FPLS	≤ 0.2
RAGC	0.968
RDHK	≤ 0.2
MGID	≤ 0.2
TFIS	≤ 0.2
RAES	0.948

Variant	one-hybrid fitness for binding parS DNA
HYFN	≤ 0.2
GYEP	≤ 0.2
VVDR	≤ 0.2
VDKH	≤ 0.2
RINW	0.205
DWKY	≤ 0.2
SCGI	≤ 0.2
YYNT	≤ 0.2
PRGL	≤ 0.2
IGRT	≤ 0.2
NAIM	≤ 0.2
VTCK	≤ 0.2
QWTM	≤ 0.2
SNGA	≤ 0.2
DFHC	≤ 0.2
WDRG	≤ 0.2
AHPQ	≤ 0.2
YIYR	≤ 0.2
YVSS	≤ 0.2
YISW	≤ 0.2
SNNL	≤ 0.2
RNNW	≤ 0.2
ARRQ	≤ 0.2
KTKW	≤ 0.2
SDPL	≤ 0.2
PETA	≤ 0.2

Variant	one-hybrid fitness for binding parS DNA
KNDG	≤ 0.2
CTNA	≤ 0.2
IMHC	≤ 0.2
EKSD	≤ 0.2
QSFY	≤ 0.2
KIRY	≤ 0.2
SMRT	≤ 0.2
MSVG	≤ 0.2
RRFG	0.831
QNCN	≤ 0.2
GIVG	≤ 0.2
PQND	≤ 0.2
EFRY	≤ 0.2
QQDK	≤ 0.2
GHQR	≤ 0.2
YALC	≤ 0.2
NALA	≤ 0.2
MPRS	≤ 0.2
ASAS	≤ 0.2
LLAI	≤ 0.2
PQWG	≤ 0.2
LCVN	≤ 0.2
YVET	≤ 0.2
